Assay results reported in US20190071513A1 (APTEVO RESEARCH AND DEVELOPMENT, published 2019).
Blank lines part the entries; values can stand above or below the binder they belong to.

How the values were obtained:
[1] = target: T1, human CD123 on the surface of CD123(+) cell lines (human, UniProt P26951 19-378); assay: cell-based or functional assay
T1 sequence (looked up): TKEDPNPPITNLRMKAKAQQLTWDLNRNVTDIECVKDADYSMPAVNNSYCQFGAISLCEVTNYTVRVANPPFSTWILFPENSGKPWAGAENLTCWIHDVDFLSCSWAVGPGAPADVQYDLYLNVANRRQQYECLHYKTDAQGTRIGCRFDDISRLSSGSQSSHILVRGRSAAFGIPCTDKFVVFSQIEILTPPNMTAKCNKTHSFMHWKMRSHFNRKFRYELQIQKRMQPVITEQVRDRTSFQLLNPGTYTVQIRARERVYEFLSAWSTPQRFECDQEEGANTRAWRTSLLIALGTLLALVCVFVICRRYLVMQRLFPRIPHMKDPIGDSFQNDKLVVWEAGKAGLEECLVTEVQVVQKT

[2] = target: T2, CD3ε on Jurkat cells and human T-cells (human, UniProt P07766); assay: flow cytometry on CD3ε(+) Jurkat cells, PE anti-human Fc secondary
T2 construct: whole, on cells; on cells CD3ε stands in the TCR/CD3 complex; also called CD3 epsilon; CD3ε(+) Jurkat cell line
T2 sequence (P07766 23-207): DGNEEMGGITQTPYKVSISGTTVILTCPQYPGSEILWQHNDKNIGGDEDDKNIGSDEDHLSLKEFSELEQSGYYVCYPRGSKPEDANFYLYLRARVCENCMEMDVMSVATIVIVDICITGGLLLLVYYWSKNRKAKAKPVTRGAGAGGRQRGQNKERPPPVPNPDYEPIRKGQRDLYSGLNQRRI

[3] = target: T1, human CD123 on the surface of CD123(+) …; assay: flow cytometry on CD123(+) Molm-13 cells, PE anti-human IgG Fc secondary antibody, MFI; table under the graph
[4] = target: T3, Full-length cynomolgus CD123, isoform 1 (TRI114), on transfected cells (cynomolgus monkey); assay: flow cytometry on CHO cells stably expressing cynomolgus CD123, PE anti-human IgG Fc secondary antibody, MFI; table under the graph
T3 construct: also called cyno CD123; CHO cells stably expressing cynomolgus CD123 protein
T3 chain: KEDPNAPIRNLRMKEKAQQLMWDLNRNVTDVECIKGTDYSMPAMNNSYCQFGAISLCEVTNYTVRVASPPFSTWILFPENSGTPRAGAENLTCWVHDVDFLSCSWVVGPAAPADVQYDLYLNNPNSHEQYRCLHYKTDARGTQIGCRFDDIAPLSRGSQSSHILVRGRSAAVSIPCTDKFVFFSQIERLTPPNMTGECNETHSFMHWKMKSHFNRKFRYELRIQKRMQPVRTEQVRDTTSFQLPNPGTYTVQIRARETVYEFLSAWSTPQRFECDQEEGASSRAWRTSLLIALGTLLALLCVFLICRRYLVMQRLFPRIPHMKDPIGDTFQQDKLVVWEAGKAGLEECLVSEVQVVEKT

EC50 of T-cell activation (CD4+ and CD8+ CD25+ CD69+) with Molm-13 cells, 24 hours [1]: < 10 pM
EC50 of T-cell proliferation (CFSE) with Molm-13 cells, 4 days [1]: 9 to 23 pM
B1: TRI185 (bispecific antibody)
chain: [about 100 residues skipped]TFGGGTKVEIKGGGGSGGGGSGGGGSGGGGSEVQLLESGGGLVQPGGSLRLSCAASGFTFSSYGMSWVRQAPGKGLEGVSAISGSGGSTYYADSVKGRFTISRDNSKNTLYLQMNSLRAEDTAVYYCAKEKLRYFDWLSDAFDIWGQGTMVTVSSSEPKSSDKTHTCPPCPAPEAAGAPSVFLFPPKPKDTLMISRTPEVTCVVVDVSHEDPEVKFNWYVDGVEVHNAKTKPREEQYNSTYRVVSVLTVLHQDWLNGKEYKCAVSNKALPAPIEKTISKAKGQPREPQVYTLPPSRDELTKNQVSLTCLVKGFYPSDIAVEWESNGQPENNYKTTPPVLDSDGSFFLYSKLTVDKSRWQQGNVFSCSVMHEALHNHYTQKSLSLSPGSGGGGSGGGGSGGGGSPSEVQLVESGGGLVQPGGSLRLSCAASGFTFSTYAMNWVRQAPGKGLEWVGRIRSKYNNYATYYADSVKDRFTISRDDSKNSLYLQMNSLKTEDTAVYYCVRHGNFGNSYVSWFAYWGQGTLVTVSSGGGGSGGGGSGGGGSGGGGSQAVVTQEPSLTVSPGGTVTLTCRSSTGAVTTSNYANWVQQKPGQAPRGLIGGTNKRAPWTPARFSGSLLGGKAALTITGAQAEDEADYYCALWYSNLWVFGGGTKLTVLRS

EC50 [2]: 200 pM
B2: DRA240 (Fc fusion)
chain: QVQLVESGGGVVQPGRSLRLSCKASGYTFTRSTMHWVRQAPGQGLEWIGYINPSSAYTNYNQKFKDRFTISADKSKSTAFLQMDSLRPEDTGVYFCARPQVHYDYNGFPYWGQGTPVTVSSGGGGSGGGGSGGGGSAQDIQMTQSPSSLSASVGDRVTMTCSASSSVSYMNWYQQKPGKAPKRWIYDSSKLASGVPARFSGSGSGTDYTLTISSLQPEDFATYYCQQWSRNPPTFGGGTKLQITSSS[human IgG1 Fc with changes skipped]
notes: anti-CD3 scFv (CRIS-7 derived, humanized) at the N-terminus of Fc; also called CRIS-7 scFv-Fc; DRA040

EC50 [3]: 4650 pM
EC50 of T-cell activation (CD4+ and CD8+ CD25+ CD69+) with Molm-13 cells, 24 hours [1]: < 10 pM
EC50 of T-cell proliferation (CFSE) with Molm-13 cells, 4 days [1]: 12 to 21 pM
EC50 [4]: 12100 pM
B3: TRI130 (bispecific antibody)
chain: [about 100 residues skipped]TFGGGTKVEIKGGGGSGGGGSGGGGSGGGGSEVQLLESGGGLVQPGGSLRLSCAASGFTFSSYGMSWVRQAPGKGLEGVSAISGSGGSTYYADSVKGRFTISRDNSKNTLYLQMNSLRAEDTAVYYCAKEKLRYFDWLSDAFDIWGQGTMVTVSSSEPKSSDKTHTCPPCPAPEAAGAPSVFLFPPKPKDTLMISRTPEVTCVVVDVSHEDPEVKFNWYVDGVEVHNAKTKPREEQYNSTYRVVSVLTVLHQDWLNGKEYKCAVSNKALPAPIEKTISKAKGQPREPQVYTLPPSRDELTKNQVSLTCLVKGFYPSDIAVEWESNGQPENNYKTTPPVLDSDGSFFLYSKLTVDKSRWQQGNVFSCSVMHEALHNHYTQKSLSLSPGSGGGGSGGGGSGGGGSPSQVQLVQSGPEVKKPGSSVKVSCKASGYTFSRSTMHWVRQAPGQGLEWIGYINPSSAYTNYNQKFKDRVTITADKSTSTAYMELSSLRSEDTAVYYCARPQVHYDYNGFPYWGQGTLVTVSSGGGGSGGGGSGGGGSGGGGSDIQMTQSPSTLSASVGDRVTMTCSASSSVSYMNWYQQKPGKAPKRWIYDSSKLASGVPSRFSGSGSGTDYTLTISSLQPDDFATYYCQQWSRNPPTFGGGTKVEIKRS
notes: scFv-Fc-scFv, anti-CD123 × anti-CD3ε; dimer; also called OMT1 VLVH × TSC456 scFv-Fc-scFv; TRI1130
